Consider 43 molecules from PMC4336329 (PLoS ONE, 2015).

Hit rate of the full screen: of about 310,000 compounds, about 14,000 (4.5%) showed an effect of 50% or more. The effect is printed as a negative number. The list shows a part of the results.
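Also: peak tail current of the secondary pulse compared with the same well before compound.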

Chain of human ether-à-go-go-related gene (hERG) potassium channel (Q12809 whole entry, looked up): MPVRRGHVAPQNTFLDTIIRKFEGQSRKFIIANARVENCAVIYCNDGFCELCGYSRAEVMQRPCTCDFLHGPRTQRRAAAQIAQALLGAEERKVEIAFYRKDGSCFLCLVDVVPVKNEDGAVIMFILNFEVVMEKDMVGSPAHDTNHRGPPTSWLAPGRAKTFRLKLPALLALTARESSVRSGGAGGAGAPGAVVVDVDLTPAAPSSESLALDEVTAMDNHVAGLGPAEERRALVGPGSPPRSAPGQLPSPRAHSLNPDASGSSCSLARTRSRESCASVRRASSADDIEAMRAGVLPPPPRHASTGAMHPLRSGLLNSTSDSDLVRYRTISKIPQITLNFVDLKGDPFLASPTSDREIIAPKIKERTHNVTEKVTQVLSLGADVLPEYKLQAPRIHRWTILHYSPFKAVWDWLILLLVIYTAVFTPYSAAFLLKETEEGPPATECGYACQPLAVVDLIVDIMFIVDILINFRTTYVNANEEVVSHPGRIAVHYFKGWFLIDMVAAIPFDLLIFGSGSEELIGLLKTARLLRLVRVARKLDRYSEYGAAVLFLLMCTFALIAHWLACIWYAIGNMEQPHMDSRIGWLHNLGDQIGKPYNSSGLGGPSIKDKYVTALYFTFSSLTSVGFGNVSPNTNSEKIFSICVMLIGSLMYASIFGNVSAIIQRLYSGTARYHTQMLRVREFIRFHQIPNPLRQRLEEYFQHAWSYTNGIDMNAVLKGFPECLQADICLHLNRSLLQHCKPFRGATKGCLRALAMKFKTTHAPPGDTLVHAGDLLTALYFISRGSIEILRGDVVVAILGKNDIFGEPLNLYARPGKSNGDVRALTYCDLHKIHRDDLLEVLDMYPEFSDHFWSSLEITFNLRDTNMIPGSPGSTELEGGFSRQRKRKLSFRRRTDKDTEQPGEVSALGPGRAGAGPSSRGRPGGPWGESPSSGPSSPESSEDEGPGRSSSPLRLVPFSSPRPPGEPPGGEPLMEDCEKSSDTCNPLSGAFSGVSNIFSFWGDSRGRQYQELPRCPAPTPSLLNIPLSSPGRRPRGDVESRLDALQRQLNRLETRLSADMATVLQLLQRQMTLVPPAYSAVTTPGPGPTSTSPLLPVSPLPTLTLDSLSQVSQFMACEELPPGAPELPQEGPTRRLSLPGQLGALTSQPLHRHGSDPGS

This experiment has as its target human ether-à-go-go-related gene (hERG) potassium channel (human, UniProt Q12809). The experiment can be described thus: primary screen, population patch clamp on CHO cells stably expressing hERG.
For `Cc1ccc(S(=O)(=O)C(c2ccccc2)c2c(C)noc2C)cc1` (stereo not shown), the “hERG current change (%, negative = inhibition) at 10uM” value was determined as 8.9%.
Take `O=C(NCc1ccc2c(c1)OCO2)c1cc(-c2ccccc2Cl)on1`: the “hERG current change (%, negative = inhibition) at 10uM” value is on record as 11.9%.
For the molecule `Fc1ccccc1Cc1noc(CN(Cc2ccccn2)CC2CCCO2)n1` (stereo not shown), the “hERG current change (%, negative = inhibition) at 10uM” value turned out to be 0.0868%.
With `CCc1ccc(NC(=O)c2cnccn2)cc1`, the “hERG current change (%, negative = inhibition) at 10uM” value turned out to be 9.23%.
As to `CCCCn1c(N)c(Br)c(=O)[nH]c1=O`, the “hERG current change (%, negative = inhibition) at 10uM” value is -2.6%.
Consider `COc1cc([N+](=O)[O-])ccc1NC(=O)CCCOc1ccc(C)cc1`, for which the “hERG current change (%, negative = inhibition) at 10uM” value is reported as -8.58%.
Turning to `COC(=O)c1ccc(Cl)c(NC(=O)CN2CCN(C)CC2)c1`, the “hERG current change (%, negative = inhibition) at 10uM” value was -15.7%.
With `CN(C)C(CNC(=O)c1cccc(S(=O)(=O)N2CC3(C)CC2CC(C)(C)C3)c1)c1ccco1` (stereo not shown), the “hERG current change (%, negative = inhibition) at 10uM” value is listed as -14.1%.
Take `CCOC12NC(=O)CC(=O)N1C(c1ccccc1)=CS2` (stereo not shown): the “hERG current change (%, negative = inhibition) at 10uM” value is on record as -11.3%.
For the molecule `COc1ccc(/C=C2/SC(=O)N(CCCCCC(=O)Nc3ccccc3C(=O)O)C2=S)cc1`, the “hERG current change (%, negative = inhibition) at 10uM” value came to 13.8%.
In the case of `Cc1cc(F)ccc1NC(=O)c1cc(S(=O)(=O)N2CCCC2)cn1C` it was -24.8%; in that of `CCCCN(CCO)c1ncnc2sc(-c3ccccc3)cc12`, 17.1%; in that of `CCCC1C2C(=O)N(c3ccccc3)C(=O)C2ON1c1ccccc1` (stereo not shown), 15.7%.
In the case of `COc1ccc(/C=C2\CCc3ccccc3C2=O)cc1Cn1nc(C)cc1C`, the “hERG current change (%, negative = inhibition) at 10uM” value was -6.3%.
`C=C(C)C1CC=C(C)/C(=N/NC(=O)CCC(=O)Nc2ccccc2Cl)C1` (stereo not shown): the “hERG current change (%, negative = inhibition) at 10uM” value came out at 12.9%.
Regarding `COC(=O)c1c(N2C(=O)[C@H]3[C@@H](C2=O)[C@]2(C(=O)Nc4ccccc42)N2CCC[C@@H]32)sc(C)c1C`, the “hERG current change (%, negative = inhibition) at 10uM” value was determined as 20.9%.
With `CC(NCc1cccc(Cl)c1Cl)C(O)c1ccccc1.Cl` (stereo not shown), the “hERG current change (%, negative = inhibition) at 10uM” value is given as -7.53%.
As to `c1csc(C(c2nnnn2C2CCCC2)N2CCOCC2)c1` (stereo not shown), the “hERG current change (%, negative = inhibition) at 10uM” value came out at 4.77%.
Consider `CCN(CC(=O)NCc1cccs1)C(=O)/C=C/c1ccc(OC)c(OC)c1`, for which the “hERG current change (%, negative = inhibition) at 10uM” value is on record as -23.5%.
In the case of `CCSc1nnc(N(CCC#N)CCC#N)s1` it was 9.09%; in that of `Cc1ccc(S(=O)(=O)N2CCN(Cc3ccco3)CC2)cc1C`, 5.08%.
Regarding `COc1ccc(CN2CCNC(=O)C2CC(=O)N2CCCN(C(C)=O)CC2)cc1OC` (stereo not shown), the “hERG current change (%, negative = inhibition) at 10uM” value was 25.5%.
With `Cn1cc(C(=O)NCc2cccs2)c(=O)c2cc(S(=O)(=O)N3CCCC3)ccc21`, the “hERG current change (%, negative = inhibition) at 10uM” value was -17.2%.
Take `CCNC(=O)c1ccc(NC(=O)CC2SC(N3CCCCC3)=NC2=O)cc1` (stereo not shown): the “hERG current change (%, negative = inhibition) at 10uM” value is recorded as -7.22%.
With `O=C(O)c1ccc(NCc2nc3ccccc3n2Cc2ccccc2)cc1`, the “hERG current change (%, negative = inhibition) at 10uM” value is given as -4.61%.
The value for `CN(Cc1ccccc1)C(=O)C1CCN(S(=O)(=O)c2ccc(-n3cnnn3)cc2)CC1` was -75.2%; that for `CCOC(=O)NC(Nc1sc2c(c1C(=O)OC)CCN(C)C2)(C(F)(F)F)C(F)(F)F` was -13.2%.
Regarding `O=C(Cc1cccs1)Nc1ccccc1NC(=O)Cc1cccs1`, the “hERG current change (%, negative = inhibition) at 10uM” value is on record as 9.44%.
Consider `CC(C)CCOc1ccc(C(=O)N2CCCC2C(=O)O)cc1` (stereo not shown), for which the “hERG current change (%, negative = inhibition) at 10uM” value amounted to 7.63%.
With `CCOc1ccc(-n2c(C)c(C(C)=O)c3cc(OC(C)=O)ccc32)cc1`, the “hERG current change (%, negative = inhibition) at 10uM” value is on record as 11%.
Regarding `CC(C)Cn1c(SCC(=O)NCc2ccco2)nnc1-c1ccncc1`, the “hERG current change (%, negative = inhibition) at 10uM” value stood at 17.8%.
The value for `Cc1nn(CC(=O)NCc2cccnc2)c(=O)c2ccccc12` was 11.9%; that for `CCC(c1nnnn1Cc1ccc2c(c1)OCO2)N1CCN(c2ccccc2)CC1` (stereo not shown) was -9.08%.
For the molecule `CCCN1CCN(c2nc(-c3cccs3)nc3ccccc23)CC1`, the “hERG current change (%, negative = inhibition) at 10uM” value is given as -68.6%.
For the molecule `Cc1nc(-c2cc(-c3ccc(Cl)cc3)no2)cs1`, the “hERG current change (%, negative = inhibition) at 10uM” value came out at 5.86%.
Regarding `CC(=O)c1c(C)[nH]c(C(=O)OCC(=O)NCCc2ccc(Cl)cc2)c1C`, the “hERG current change (%, negative = inhibition) at 10uM” value is given as -24.3%.
Take `COC(=O)Cn1c(=NC(=O)c2sc3ccccc3c2Cl)sc2cc(S(N)(=O)=O)ccc21`: the “hERG current change (%, negative = inhibition) at 10uM” value came to 8.01%.
The value for `COCCN1CCN(Cc2cn(C)nc2-c2cccc(Cl)c2)CC1` was -15.7%.
Take `CCn1c(C2CC(=O)N(Cc3ccccc3)C2)nc2ccccc21` (stereo not shown): the “hERG current change (%, negative = inhibition) at 10uM” value is reported as -12.5%.
Turning to `COc1cccc(NC(=O)COC(=O)C2CCN(S(=O)(=O)c3cccs3)CC2)c1`, the “hERG current change (%, negative = inhibition) at 10uM” value was -47.9%.
The value for `Cc1cccc(NC(=O)C2CCCN(S(=O)(=O)c3ccc4[nH]c(=O)ccc4c3)C2)n1` (stereo not shown) was -34.8%.
Turning to `Cc1c(Cl)cccc1NC(=O)CCCCCN1C(=O)CCC1=O`, the “hERG current change (%, negative = inhibition) at 10uM” value was determined as 17.2%.
Turning to `O=C(O)COc1ccccc1/C=N/NC(=O)CN1CCN(S(=O)(=O)c2ccc(Br)cc2)CC1`, the “hERG current change (%, negative = inhibition) at 10uM” value is 4.89%.
